# Measurements taken from PubChem BioAssay AID686979 (National Center for Advancing Translational Sciences (NCATS), 2013).
# Where “and” joins values, the source holds several entries; their conditions need not be identical. Equal values may be shown once. About 50,000 (12%) of roughly 420,000 compounds were called active. The shares of active, inactive and inconclusive entries below differ from those in the screen. Calls follow the shape of the dose curve; as a rule, active = well fitted inhibition curve with a large enough effect; inconclusive = small, poorly fitted or top-dose-only effect; inactive = flat fitted curve, though single readings scatter. Where the call is inconclusive, the potency comes from a doubtful curve fit.
# Assay: qHTS for Inhibitors of human tyrosyl-DNA phosphodiesterase 1 (TDP1): qHTS in cells in presence of CPT; also: nearly all actives have a fitted effect of over 55% in size
# Details: chicken DT40 Tdp1-/-;hTDP1 cells + 20 nM CPT, ATP luminescence, 48 h; activity change, negative = growth inhibition: at 46.2 µM (top of the series) unless noted
# In short: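 Chicken DT40 Tdp1-/- cells complemented with human TDP1, 400 cells/well, exposed to compounds plus 20 nM camptothecin for at least 48 h at 37 C; viability read as ATP content by CellTiter-Glo luminescence.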
# % is scaled to controls: 0 for no effect and ±100 for the full control effect; potency is read from the fitted curve at half-maximal effect; tags tell the direction and shape of the fitted curve.
Structure (SMILES),Potency,"activity change, negative = growth inhibition"
CC(C)c1ccc2oc(-c3ccc(NC(=O)c4ncn[nH]4)cc3)nc2c1,"inconclusive: 25.9 µM [inhibitor, single point]",–
COc1ccc(CCN(C(=O)c2ccco2)C(C(=O)NC2CCCC2)c2ccncc2)cc1OC (stereo not drawn),–,inactive: -14.3%
CC(=O)Nc1ccc(S(=O)(=O)NC2CC(=O)N(c3ccc(C)c(C)c3)C2)cc1 (stereo not drawn),"inconclusive: 20.6 µM [inhibitor, single point]",–
CC(C)CCn1cnc2c(NCc3ccccc3)ncnc21,–,inactive: -15.5%
Cc1cccc(N2CCN(C(=O)CN3C(=O)COc4ccc(S(=O)(=O)N5CCCCCC5)cc43)CC2)c1C,"inconclusive: 23.1 µM [inhibitor, single point]",–
COc1ccc(OC)c(CN2C(=O)CN(S(C)(=O)=O)CC2(C)C(=O)Nc2c(C)cccc2C)c1 (stereo not drawn),–,inactive: 7.07%
Cc1nc2cc(C(F)(F)F)ccc2n1C,–,inactive: 6.26%
CC(=O)c1c(C)nn(CC(O)COc2ccc3c(c2)CCC3)c1C (stereo not drawn),"inconclusive: 16.4 µM [inhibitor, partial curve, poor fit]",–
COc1ccccc1OCCC(=O)OCC(=O)NCc1ccc(F)cc1,–,inactive: -2.69%
Cc1oc(-c2ccc(C(=O)NCc3ccc(Cl)cc3)cc2)nc1CS(=O)(=O)c1ccccc1,"inconclusive: 9.2 µM [inhibitor, partial curve]",–
COc1ccccc1/C=C1/SC(=S)N(C(C)C(=O)NC2C=CS(=O)(=O)C2)C1=O (stereo not drawn),"inconclusive: 29.1 µM [inhibitor, single point]",–
Cc1nc(N)sc1N=Nc1ccc(Br)cc1,–,inactive: -0.385%
CCCCNC(=O)C(Cc1ccccc1)NS(=O)(=O)c1ccc2c(c1)c(=O)n(C)c(=O)n2C (stereo not drawn),inactive,–
CCOc1ccc(-c2ncnn2-c2sc3c(c2C#N)CCCCC3)cc1,–,inactive: -28.3%
COc1ccccc1NS(=O)(=O)c1cc(C(=O)NCC(c2cccs2)N2CCOCC2)ccc1C (stereo not drawn),"inconclusive: 29.1 µM [inhibitor, single point]",–
CC(C)c1ccc(N2C(=O)CS(=O)(=O)C23C(=O)N(Cc2cccc(F)c2)c2ccccc23)cc1 (stereo not drawn),"inconclusive: 16.4 µM [inhibitor, single point]",–
COc1ccc(NS(=O)(=O)c2ccc3oc(SC4CCOC4=O)nc3c2)cc1 (stereo not drawn),–,inactive: -5.31%
Cc1nc(SCC(=O)NC(=O)NC(C)C)nc(C)c1C,–,inactive: 0.115%
CC(NC(=O)Nc1nccs1)(C(F)(F)F)C(F)(F)F,–,inactive: 2.07%
Cn1cc(S(=O)(=O)N2CCCC2)cc1C(=O)NCc1ccc(Cl)cc1,"inconclusive: 25.9 µM [inhibitor, single point]",–
OCCNc1nc(NCc2ccccc2)c2ccccc2n1,"inconclusive: 29.1 µM [inhibitor, single point]",–
CCOC(=O)c1ccc(NS(=O)(=O)c2ccc(-c3cc(C)no3)cc2)cc1,"inconclusive: 23.1 µM [inhibitor, single point]",–
O=C(CSc1nnc(-c2ccccc2F)o1)Nc1ccc(N2CCOCC2)cc1,–,inactive: -2.08%
O=C(CN1c2ccccc2Sc2ccccc21)NNC(=S)Nc1ccc(Cl)cc1Cl,"inconclusive: 29.1 µM [inhibitor, single point]",–
Cc1cccc(OCC(=O)N2CCN(C(=O)COc3ccc(Cl)cc3)CC2)c1,"inconclusive: 23.1 µM [inhibitor, single point]",–

Structure (SMILES),Potency,"activity change, negative = growth inhibition"
CCOC(=O)c1c(NC(=S)Nc2ccc(Cl)cc2)sc(C)c1C,–,inactive: -20.4%
COc1ccc([C@H]2CC(=O)C[C@@H](CCn3cc(-c4ccccc4)nn3)O2)cc1,"inconclusive: 20.6 µM [inhibitor, partial curve]",–
O=C(NCc1ccccc1)C(C1CC1)n1c(=O)c(-c2cc3ccccc3[nH]2)nc2ccccc21 (stereo not drawn),"inconclusive: 20.6 µM [inhibitor, single point]",–
O=C(c1ccc(COc2ccccc2[N+](=O)[O-])o1)N1CCCCC1,"inconclusive: 22.4 µM [inhibitor, single point]",–
CCN1/C(=C\C=C2\C(=O)N(C)C(=S)N2C)Sc2ccccc21,–,inactive: -4.77%
CCC(COC(=O)Nc1cccc(C)c1)NC(=O)OCC(C)C (stereo not drawn),"inconclusive: 23.1 µM [inhibitor, single point]",–
COc1ccccc1CCNC(=O)c1ccc(-c2nc(CSc3ccc(C)cc3)c(C)o2)cc1,active: 16.4 µM,–
O=C(c1cc(C(F)(F)F)cc(C(F)(F)F)c1)N1CCC2(CCCN(c3ccncc3)C2)CC1,"inconclusive: 25.9 µM [inhibitor, single point]",–
Cc1noc(/C=C/N(C)C)c1S(=O)(=O)N1CCCC(C(=O)NC2CCCCC2C)C1 (stereo not drawn),"inconclusive: 29.1 µM [inhibitor, single point]",–
CSc1ncc(C(=O)Nc2c(C)cccc2C)c(-c2ccccc2)n1,–,inactive: -10.8%
O=C(Nc1cccc2nsnc12)c1ccc(-c2ccc(Br)cc2)o1,"inconclusive: 23.1 µM [inhibitor, partial curve]",–
CSc1ccccc1NC(=O)CN(C)CC(=O)c1c(C)[nH]c2ccccc12,"inconclusive: 29.1 µM [inhibitor, single point]",–
O=C(Nc1ccon1)c1cc(-c2ccccc2)nc2ccccc12,–,inactive: -23.1%
O=c1ccc(-c2ccc(S(=O)(=O)N3CCN(c4ccccc4)CC3)o2)n[nH]1,–,inactive: -7.14%
CCCCC(=O)NNC(=S)NC(=O)c1ccc([N+](=O)[O-])cc1,"inconclusive: 29.1 µM [inhibitor, single point]",–
CC(C)n1c(SCC(=O)Nc2ccc(F)cc2)nnc1C1CC1,–,inactive: -5.28%
COc1ccc(CNC(=O)CN(Cc2ccc(Cl)cc2)S(=O)(=O)c2ccccc2)cc1,–,inconclusive: -36.3% [inhibitor]
CCN(CC)c1ccc(/C=N/NC(=O)c2c(Cl)c(C)nn2C)cc1,"inconclusive: 29.1 µM [inhibitor, single point]",–
COC(=O)c1cn[nH]c1NC(=S)Nc1ccc(C)cc1Cl,"inconclusive: 35.5 µM [inhibitor, single point]",–
COc1ccc(Cn2ccc3nc(C)c(C(=O)Nc4cc(C)cc(C)c4)cc3c2=O)cc1,–,inconclusive: -36.1% [inhibitor]
COc1ccccc1NC(=O)COC(=O)c1c(C)nn(-c2ccccc2)c1C,active: 18.4 µM,–
Cc1cccc2cc(CN(CC3CCCO3)C(=O)c3cccs3)c(=O)[nH]c12 (stereo not drawn),–,inactive: 1.49%
CCCCC(=O)NCCc1c(Cc2ccccc2)[nH]c2ccccc12,"inconclusive: 29.9 µM [inhibitor, single point] and inconclusive: 29.1 µM [inhibitor, single point]",–
O=C(Nc1ccccc1OC(F)F)c1ccc(-n2cncn2)c([N+](=O)[O-])c1,–,inactive: -29.7%
S=c1[nH]nc(-c2cc(-c3ccccc3)n[nH]2)n1/N=C/c1ccccc1,"inconclusive: 29.1 µM [inhibitor, single point]",–

Structure (SMILES),Potency,"activity change, negative = growth inhibition"
CCC1CN(C(=O)N2CCC(C(=O)NCCc3ccccc3Cl)CC2)c2cc(C)ccc2O1 (stereo not drawn),active: 16.4 µM,–
Cc1cc(C)n(-c2nc(SCC(=O)O)c3c4c(sc3n2)COC(C)(C)C4)n1,"inconclusive: 11.6 µM [inhibitor, partial curve]",–
O=C1CC(NNc2ccccc2)C(=O)N1c1ccc(N2CCCCC2)cc1 (stereo not drawn),"inconclusive: 29.1 µM [inhibitor, single point]",–
CC1CCCCN1C(=O)c1ccccc1OC1CCN(S(C)(=O)=O)CC1 (stereo not drawn),–,inactive: -11%
Cc1ccc(NC(=O)CN2C(=O)/C(=C\c3cccs3)SC2=S)cc1,"inconclusive: 25.9 µM [inhibitor, single point]",–
CC(=O)c1cc2c(cc1F)C(C)(C)CCC2(C)C,–,inconclusive: -32.4% [inhibitor]
COc1ccc2nc(NCc3ccccc3)[nH]c2c1,"inconclusive: 18.4 µM [inhibitor, single point]",–
CCOC(=O)N1CCN(C(=O)C2CCC(=O)N(Cc3cccc(C(F)(F)F)c3)C2)CC1 (stereo not drawn),–,inactive: -0.75%
Cc1ccc(Nc2nnc(-c3ccc(C)c(S(=O)(=O)N4CCN(C)CC4)c3)c3ccccc23)cc1,active: 18.4 µM,–
CCOc1c(C)cc(-c2ncccc2O)cc1C,"inconclusive: 32.6 µM [inhibitor, single point]",–
CCC[C@@]1(CCc2ccccc2)CC(O)=C([C@H](CC)c2cccc(NS(=O)(=O)c3ccc(C(F)(F)F)cn3)c2)C(=O)O1,"inconclusive: 23.7 µM [inhibitor, single point]",–
CCOC(=O)C1(CCOc2ccccc2)CCN(Cc2ccc(OC)c(O)c2)CC1,active: 16.4 µM,–
Cc1c(N)cccc1N,–,inactive: -14%
FC(F)c1nc2nc(Cl)c(Cl)nc2[nH]1,active: 16.4 µM,–
O=C(NNc1ccccc1F)c1sccc1Cl,–,inactive: -21.1%
O=C(Nc1ccn(Cc2ccc(F)cc2)n1)c1ccncc1,active: 18.4 µM,–
CCOCCCn1c(SCC(=O)OCC)nc2c(sc3ccccc32)c1=O,"inconclusive: 16.4 µM [inhibitor, single point]",–
OC(CN=c1sc2ccccc2n1CC(O)COc1ccccc1)COc1ccccc1 (stereo not drawn),active: 25.9 µM,–
CCCCOP(=O)(OCCCC)C(O)c1ccc(N(C)C)cc1 (stereo not drawn),"inconclusive: 25.9 µM [inhibitor, partial curve]",–
Cc1ccc(C2CC(c3cccs3)=NN2S(=O)(=O)c2ccc(C)cc2)cc1 (stereo not drawn),active: 20.6 µM,–
COc1ccc(NC(=O)COc2cccc(-n3cnnn3)c2)cc1Cl,"inconclusive: 7.31 µM [inhibitor, partial curve]",–
COc1ccc2c(=O)cc(-c3ccccc3)oc2c1O,"inconclusive: 33.5 µM [inhibitor, single point]",–
Cc1cccc(C(C)C)c1NC(=O)C1CCCN1S(=O)(=O)c1cccc2nsnc12 (stereo not drawn),active: 23.1 µM,–
